Measured values published in the antibiotic and cytotoxicity screens of Wong et al. (2023).
The other results are listed elsewhere or left out.

Experiments:
[1] = system: HSkMC (human skeletal muscle cells); test: cytotoxicity call (relative viability < 0.9); details: 10 µM
[2] = system: HepG2; test: cytotoxicity call (relative viability < 0.9); details: 10 µM
[3] = system: S. aureus RN4220; test: growth inhibition call (relative growth <= 0.2); details: 50 µM

Q: COc1ccc(CN(C)C[C@@H]2OCCCC[C@H](C)Oc3ccc(NS(=O)(=O)c4cccs4)cc3C(=O)N([C@H](C)CO)C[C@H]2C)cc1 was tested. Which cytotoxicity call [1] did it give?
A: inactive

Q: And the cytotoxicity call [2]?
A: inactive

Q: What about the growth inhibition call [3] of the same molecule?
A: inactive

Q: What does the source list for COc1ccc(C#Cc2cnc3c(c2)C(=O)N([C@@H](C)CO)C[C@H](C)[C@H](CN(C)CC2CCOCC2)O3)cc1?
A: cytotoxicity call [1]: inactive; cytotoxicity call [2]: inactive; growth inhibition call [3]: inactive

Q: What does the source list for O=C(C[C@H]1C[C@@H]2c3cc(NC(=O)Nc4ccccc4)ccc3O[C@@H]2[C@H](CO)O1)NCCN1CCCCC1?
A: cytotoxicity call [1]: inactive; cytotoxicity call [2]: inactive; growth inhibition call [3]: inactive

Q: For CCOC(=O)N(C)C[C@H]1OCc2cn(nn2)CCCC(=O)N([C@@H](C)CO)C[C@@H]1C, which cytotoxicity call [1] is on record?
A: inactive

Q: And the cytotoxicity call [2]?
A: inactive

Q: And the growth inhibition call [3]?
A: inactive

Q: What does the source list for Cc1ccc(S(=O)(=O)Nc2ccc3c(c2)C(=O)N([C@@H](C)CO)C[C@H](C)[C@@H](CN(C)S(=O)(=O)c2cccs2)O3)cc1?
A: cytotoxicity call [1]: inactive; cytotoxicity call [2]: inactive; growth inhibition call [3]: inactive

Q: How did the cytotoxicity call [1] turn out when Nc1nnnn1/N=C\C=C\c1ccccc1 was run?
A: inactive

Q: What about the cytotoxicity call [2] of the same molecule?
A: inactive

Q: What about the growth inhibition call [3] of the same molecule?
A: inactive

Q: Which cytotoxicity call [1] does the source give for C[C@@H]1CCCCO[C@@H](CN(C)CC2CCCCC2)[C@H](C)CN([C@@H](C)CO)C(=O)c2cc(NS(=O)(=O)c3ccccc3)ccc2O1 here?
A: inactive

Q: What about the cytotoxicity call [2] of the same molecule?
A: inactive

Q: What about the growth inhibition call [3] of the same molecule?
A: inactive

Q: With C[C@@H]1CN([C@H](C)CO)C(=O)Cc2cc(NC(=O)Nc3ccc(C(F)(F)F)cc3)ccc2O[C@@H]1CN(C)Cc1ccc(C(=O)Nc2ccccc2N)cc1 as the molecule, how does the cytotoxicity call [1] read?
A: inactive

Q: And the cytotoxicity call [2]?
A: active

Q: What about the growth inhibition call [3] of the same molecule?
A: inactive

Q: What does the source list for C[C@H](CO)N1C[C@H](C)[C@@H](CN(C)C(=O)Nc2ccc(C(F)(F)F)cc2)OCCCC[C@H](C)Oc2ccc(NS(C)(=O)=O)cc2C1=O?
A: cytotoxicity call [1]: inactive; cytotoxicity call [2]: inactive; growth inhibition call [3]: inactive

Q: With N=C(N)Nc1nc2ccccc2[nH]1 as the molecule, how does the cytotoxicity call [1] read?
A: inactive

Q: And the cytotoxicity call [2]?
A: inactive

Q: What about the growth inhibition call [3] of the same molecule?
A: inactive

Q: NS(=O)(=O)c1cccc2c1c([N+](=O)[O-])cc1[nH]c(=O)c(=O)[nH]c12 was tested. Which cytotoxicity call [1] did it give?
A: inactive

Q: And the cytotoxicity call [2]?
A: inactive

Q: And the growth inhibition call [3]?
A: inactive

Q: What does the source list for CN1C(=O)c2cc(NC(=O)c3cnccn3)ccc2OC[C@@H]2O[C@H](CC(=O)N[C@H]3CCN(Cc4ccccc4)C3)CC[C@H]21?
A: cytotoxicity call [1]: inactive; cytotoxicity call [2]: inactive; growth inhibition call [3]: inactive

Q: What does the source list for C[C@H]1CN([C@@H](C)CO)C(=O)c2cc(C#Cc3ccccc3F)cnc2O[C@@H]1CN(C)C(=O)Cc1ccncc1?
A: cytotoxicity call [1]: inactive; cytotoxicity call [2]: inactive; growth inhibition call [3]: inactive

Q: For [O-]/[N+](=N\O[C@@H]1O[C@H](CO)[C@@H](O)[C@H](O)[C@H]1O)N1CCCC1, which cytotoxicity call [1] is on record?
A: inactive

Q: And the cytotoxicity call [2]?
A: inactive

Q: What about the growth inhibition call [3] of the same molecule?
A: inactive

Q: How did the cytotoxicity call [1] turn out when CC(C)(C)[S@@](=O)N1Cc2cc(C(=O)NCCc3ccncc3)nc(-c3cccc(-c4cccc(C#N)c4)c3)c2[C@H]1CCO was run?
A: inactive

Q: What about the cytotoxicity call [2] of the same molecule?
A: inactive

Q: And the growth inhibition call [3]?
A: inactive

Q: C[C@@H]1CN([C@@H](C)CO)C(=O)c2cccc(NS(=O)(=O)c3cccs3)c2O[C@H]1CN(C)Cc1ccc(-c2ccccc2)cc1 was tested. Which cytotoxicity call [1] did it give?
A: inactive

Q: And the cytotoxicity call [2]?
A: inactive

Q: And the growth inhibition call [3]?
A: inactive

Q: Which cytotoxicity call [1] does the source give for O=C(O)CCC(=O)O.O=C(OC1CN2CCC1CC2)N1CCc2ccccc2C1c1ccccc1 (stereo not drawn) here?
A: inactive

Q: And the cytotoxicity call [2]?
A: inactive

Q: What about the growth inhibition call [3] of the same molecule?
A: inactive

Q: Which cytotoxicity call [1] does the source give for O=C(C[C@H]1C[C@H]2c3cc(NC(=O)Cc4ccncc4)ccc3O[C@H]2[C@@H](CO)O1)NCCc1ccccc1 here?
A: inactive

Q: And the cytotoxicity call [2]?
A: inactive

Q: And the growth inhibition call [3]?
A: inactive

Q: With CC(C)NC(=O)N[C@H]1CC[C@H](CCN)O[C@H]1CO as the molecule, how does the cytotoxicity call [1] read?
A: inactive

Q: And the cytotoxicity call [2]?
A: inactive

Q: And the growth inhibition call [3]?
A: inactive

Q: With C[C@H]1CN([C@@H](C)CO)C(=O)c2cccc(NC(=O)C3CCOCC3)c2O[C@@H]1CN(C)Cc1ccc(-c2ccccc2)cc1 as the molecule, how does the cytotoxicity call [1] read?
A: inactive

Q: What about the cytotoxicity call [2] of the same molecule?
A: inactive

Q: And the growth inhibition call [3]?
A: inactive

Q: What does the source list for COCCCNC(=O)[C@@]1(Sc2ccc(C)cc2)CC(=O)N(Cc2ccccc2Cl)[C@@H]1c1ccc(CO)cc1?
A: cytotoxicity call [1]: inactive; cytotoxicity call [2]: inactive; growth inhibition call [3]: inactive

Q: For C[C@H]1CN([C@@H](C)CO)C(=O)c2cc(NS(C)(=O)=O)ccc2O[C@@H]1CN(C)C(=O)Nc1ccc(F)cc1, which cytotoxicity call [1] is on record?
A: inactive

Q: And the cytotoxicity call [2]?
A: active

Q: And the growth inhibition call [3]?
A: inactive

Q: Which results are given for C[C@@H]1CN([C@H](C)CO)C(=O)c2cc(C3=CCCCC3)cnc2O[C@H]1CN(C)S(=O)(=O)c1cn(C)cn1?
A: cytotoxicity call [1]: inactive; cytotoxicity call [2]: inactive; growth inhibition call [3]: inactive

Q: How did the cytotoxicity call [1] turn out when CCCCC[C@@H](O)[C@@H]1C(=O)O[C@H](C)[C@H](O)/C=C/C=C/C=C/C=C/C=C(\C)[C@H](O)C[C@H](O)C[C@H](O)C[C@H](O)C[C@H](O)C[C@H](O)C[C@@H]1O was run?
A: inactive

Q: And the cytotoxicity call [2]?
A: inactive

Q: What about the growth inhibition call [3] of the same molecule?
A: inactive

Q: For C[C@@H]1CN([C@@H](C)CO)C(=O)Cc2cc(NS(=O)(=O)c3ccc(Cl)cc3)ccc2O[C@@H]1CN(C)Cc1ccc(Oc2ccccc2)cc1, which cytotoxicity call [1] is on record?
A: active

Q: And the cytotoxicity call [2]?
A: active

Q: And the growth inhibition call [3]?
A: inactive

Q: With C[C@H](CO)N1C[C@H](C)[C@H](CN(C)S(=O)(=O)c2cn(C)cn2)OCCCC[C@H](C)Oc2ccc(NS(=O)(=O)c3cccs3)cc2C1=O as the molecule, how does the cytotoxicity call [1] read?
A: inactive

Q: And the cytotoxicity call [2]?
A: inactive

Q: What about the growth inhibition call [3] of the same molecule?
A: inactive
